Screen size: about 110,000 compounds; about 230 (0.21%) showed an effect of 50% or more. The list shows a part of the results.
Each compound was assayed against DPAP1 (Plasmodium falciparum, UniProt Q8IIJ9) (assay: primary screen, percent inhibition; read by cleavage of a fluorogenic dipeptide substrate; higher = more effect of the substance).
Design: species or system P. falciparum D10 trophozoite lysates; single well
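Also: 30 min substrate incubation versus DMSO and 10 µM JCP410 controls.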

DPAP1, sequence (Q8IIJ9 whole entry, looked up): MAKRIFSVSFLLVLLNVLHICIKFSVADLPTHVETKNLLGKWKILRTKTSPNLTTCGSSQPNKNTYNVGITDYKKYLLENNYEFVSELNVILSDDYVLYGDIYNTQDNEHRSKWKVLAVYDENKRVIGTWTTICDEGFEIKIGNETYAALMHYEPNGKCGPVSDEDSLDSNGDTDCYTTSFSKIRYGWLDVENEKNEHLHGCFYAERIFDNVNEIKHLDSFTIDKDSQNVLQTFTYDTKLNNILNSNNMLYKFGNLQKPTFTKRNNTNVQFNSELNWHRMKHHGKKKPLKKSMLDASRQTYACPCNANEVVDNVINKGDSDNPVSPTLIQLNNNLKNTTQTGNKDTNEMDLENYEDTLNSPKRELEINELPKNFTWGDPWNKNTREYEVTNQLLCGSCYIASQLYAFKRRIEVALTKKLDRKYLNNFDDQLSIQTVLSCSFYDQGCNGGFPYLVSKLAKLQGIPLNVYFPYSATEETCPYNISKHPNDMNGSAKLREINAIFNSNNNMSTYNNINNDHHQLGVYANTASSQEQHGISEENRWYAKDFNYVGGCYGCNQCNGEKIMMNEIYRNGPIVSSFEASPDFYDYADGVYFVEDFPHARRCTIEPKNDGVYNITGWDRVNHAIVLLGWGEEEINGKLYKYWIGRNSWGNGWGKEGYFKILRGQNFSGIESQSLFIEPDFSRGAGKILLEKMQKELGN

SMILES	% Inhibition @ 10 uM [%]
Cc1c(C(=O)NCc2cccnc2)sc2nc(-c3ccc(F)cc3)cn12	1.55
CC(C)CNS(=O)(=O)c1ccc(CCC(=O)N2CCN(c3ccccc3)CC2)cc1	3.49
COc1ccc2c(c1)sc1nc(C)c(CCO)c(=O)n12	5.42
COc1ccc(C(=O)NC2CCCCC2)cc1	2.36
CC(C)COC(=O)C1CN1C(C)(C)CO (stereo not drawn)	-1.59
Cc1ccc(S(=O)(=O)NCC(=O)N2CCN(c3ccccc3F)CC2)cc1	3.91
Cc1cc2ccccc2n1CCNC(=O)c1cc2ccccc2oc1=O	0.8
O=C1CC(N2CCCC2)C(=O)N1c1ccc(F)cc1 (stereo not drawn)	-3.19
CC(C)(C)OC(=O)N1CCN(c2ncnc3[nH]cnc23)CC1	3.51
CCOc1cccc(N2C(=O)CC(NCCc3ccc(S(N)(=O)=O)cc3)C2=O)c1 (stereo not drawn)	6.79
CC1=C(C(=O)Nc2ccc(C)cn2)C(c2c(F)cccc2Cl)C2=C(O)CC(C)(C)CC2=N1 (stereo not drawn)	4.11
Cc1nc2scc(C)n2c(=O)c1S(=O)(=O)NCCC1=CCCCC1	3.59
C=CCn1c(=O)c(C(=O)Nc2ccc(Cl)cn2)c(O)c2ccccc21	-3.71
O=C(O)c1cccn1-c1nnc(N2CCN(C3CCCCC3)CC2)s1	3.29
O=C1/C(=C/c2ccco2)N(Cc2ccccc2)Cc2ccccc21	-2.64
COc1ccc(C2C(C#N)=C(N)Oc3cc(O)ccc32)cc1Br (stereo not drawn)	-6.82
CCn1cc(C(=O)N(CCCN2CCOCC2)Cc2ccco2)c(=O)c2ccc(C)nc21	2.8
O=C(c1cnn2c3c(cnc12)CCCCC3)N1CCc2ccccc2C1	17.8
CC(C)(C)c1cc(CN2CCN(c3ccccc3F)CC2)cc(C(C)(C)C)c1O	2.33
CCn1ncc(/C=c2/sc3n(c2=O)C(c2ccccc2)C(C(=O)Nc2ccccc2)=C(C)N=3)c1C (stereo not drawn)	0.235
O=C(/N=C1\S/C(=C/c2cccnc2)C(=O)N1c1ccccc1)c1ccccc1	5.94
CC1CCN(c2ncnc3sc4c(c23)CCC(C)C4)CC1 (stereo not drawn)	-1.06
O=C(CSc1nc2ccc(N3C(=O)c4ccccc4C3=O)cc2s1)N1CCOCC1	-3.9
Cc1sc2ncn(CC(=O)NCC(=O)NCCN3CCOCC3)c(=O)c2c1C	2.8
CO/C(O)=C1/C(C)=NC(=S)NC1c1ccc(Cl)cc1 (stereo not drawn)	-1.5

SMILES	% Inhibition @ 10 uM [%]
COc1ccc(OC)c(-n2cc(-c3ccccc3)nc2SC)c1	4.49
CCCCN(C)C(=O)/C(=C/c1cn(S(=O)(=O)N(C)C)c2ccccc12)NC(=O)c1ccc(C)cc1	-1.74
CCS(=O)(=O)c1nc(S(=O)(=O)c2ccc(Cl)cc2)c(NCc2ccc(OC)cc2)s1	2.76
O=S(=O)(Nc1ccccc1Cl)c1cccc(C(F)(F)F)c1	-0.999
O=C(Nc1ccccc1)/C(O)=C/C(=O)c1ccccc1	4.17
Cc1ccc(S(=O)(=O)NCCCOC(=O)Nc2ccncc2)cc1	-5.01
CC1(C)COC2(OC1)C(=O)Nc1ccccc12	4.61
CC1=NN(c2ccccc2)C(=O)/C1=C\c1cc2c(cc1Cl)OCO2	-4.21
O=C1C2CN3CCN(C2)CC1(Cc1ccccc1)C3	-1.82
NCCC1COc2ccccc2O1 (stereo not drawn)	0.0539
COC(=O)c1cc(S(=O)(=O)NCc2ccccc2OC)c[nH]1	-0.267
Cn1c(NCC(O)CO)nc2c1c(=O)n(Cc1ccccc1Cl)c(=O)n2C (stereo not drawn)	-5.41
Clc1ccccc1C1C=C(c2cccs2)Nc2ncnn21 (stereo not drawn)	-1.62
Cc1ccc(NC(=O)C2CCN(S(=O)(=O)c3ccc(Cl)cc3)CC2)cc1C	-5.3
COc1cc(-c2nc3n(n2)C(c2ccncc2)C2=C(O)CCCC2=N3)cc(OC)c1OC (stereo not drawn)	13.5
Cc1ccc(-c2csc(/C(C#N)=C\C=C\c3ccccc3)n2)cc1	-1.22
CC(C)C[C@H](OC(=O)Nc1ccc(-c2cnc(-c3ccncc3)s2)cc1)C(=O)NCC#N	18.1
COCc1[nH]nc2c1C(c1cccc(O)c1)C(C#N)=C(N)O2 (stereo not drawn)	-4.75
CC(C)(C)Cc1ccc(OCCCC(=O)Nc2ccc(Cl)c(N)c2)c(CC(C)(C)C)c1	2.62
COc1ccc(C2OC3(C(=O)c4ccccc4C3=O)C3C(=O)N(c4ccc(C)cc4)C(=O)C23)cc1OC (stereo not drawn)	-4.69
CSc1nc(-c2ccccc2)cn1-c1ccccc1F	9.6
COc1ccc(C(NC(=O)COc2ccccc2)c2cc(Cl)c3cccnc3c2O)cc1OC (stereo not drawn)	-6.93
Nc1c2c(nc3ccn(-c4ccccc4)c(=O)c13)CCCC2	-10.4
CC(C)(C)NS(=O)(=O)c1ccc(NC(=O)c2ccco2)cc1	0.13
O=C(Cc1ccccc1)Nc1cccc(Cl)c1	-3.65

SMILES	% Inhibition @ 10 uM [%]
CCC(C(=O)NCCCN1CC(C)CC(C)C1)n1ncn2c(cc3occc32)c1=O (stereo not drawn)	-1.81
COc1ccc2c(c1)c1ncn(CCN3CCN(Cc4ccccc4)CC3)c(=O)c1n2C	1.64
CC(=O)Nc1ccc(Cl)c(C(N)=O)c1	-2
COCCCNC(=O)/C(C#N)=C/c1c(Oc2ccc(Cl)c(C)c2)nc2ccccn2c1=O	-5.11
CC(C)Cc1c(C#N)c(N)nc(S)c1C#N	78.5
CC1CC2(CCCCC2)NCc2ccccc21 (stereo not drawn)	4.3
Cc1ccc(C2CC(=O)NC(SCCC(C)C)=C2C#N)cc1 (stereo not drawn)	5.23
O=C(O)c1ccc(-c2ccc(/C=C3/NC(=O)N(Cc4ccccc4F)C3=O)o2)cc1	9.97
Cc1ccc(OCCSc2nc3ccccc3n2CCO)cc1	1.27
COc1ccc(C(=O)c2c(/C=C/N(C)C)oc3ccc(OC)cc23)cc1	-0.261
CCCC/N=C(\C)c1sc2ccc(OCC)cc2c1O	6.19
Cc1c(-c2ccccc2)n(CCO)c2nc3c(c(=O)n(C)c(=O)n3C)n12	-4.42
O=C1NC(=O)C(Cc2ccccc2)(c2ccccc2)N1 (stereo not drawn)	1.83
CC(CNC(=O)Cn1ncn2c(cc3ccccc32)c1=O)c1ccccc1 (stereo not drawn)	-1.7
CCCN1CCN(C(=O)c2cnn(-c3ccc(C)cc3)c2-n2cccc2)CC1	-5.74
COc1ccccc1Cn1c(=O)oc2ccc(C)cc21	-6.37
CCOc1ccc(N2C(=O)CC(N3CCCCC3)C2=O)cc1 (stereo not drawn)	4.76
O=[N+]([O-])c1cc(Cl)ccc1N1CCN(Cc2ccccc2)CC1	1.04
C/C(=C\c1cccc(Cl)c1Cl)C(=O)c1c(C)cc(C)nc1O	-2.48
Cc1nn(CC(=O)NC(C)CCc2ccccc2)c(=O)c2cccn12 (stereo not drawn)	-2.45
COc1ccc(CCNC(=O)c2cc3c(s2)-c2ccccc2OC3)c(OC)c1	3.45
Cc1nc2cc(-c3ccccc3)nn2c(C)c1CC(=O)NCc1ccco1	-4.24
O=C(O)c1cccc(S(=O)(=O)N2CCN(C(=O)c3ccccc3)CC2)c1	-1.24
Cc1ccc(N(CC(=O)NC(C)C)S(C)(=O)=O)cc1Cl	-3.25
COCCN1C(=O)/C(=C\c2ccc(Cl)c(Cl)c2)C(C(=O)OC)=C1C	1.72

SMILES	% Inhibition @ 10 uM [%]
CC1CC(C)CN(CCCNC(=O)c2cc3c(-c4ccccc4F)nn(C)c3s2)C1 (stereo not drawn)	-5.1
Cc1cc(O)n2nc(NCc3cccs3)nc2n1	-2.4
COc1ccc(C(=O)N2CCN(Cc3ccc(C)cc3)CC2)cc1	-2.32
Cc1noc(C)c1CCNC(=O)Nc1cn(CC(C)C)c(=O)c2ccccc12	-5.94
CCC(C(=O)NC(C)c1ccc2c(c1)OCCO2)n1nc(C)n2c(cc3occc32)c1=O (stereo not drawn)	-2
CCOC(=O)C1=C(CN2CCC3(CC2)OCCO3)NC(=O)NC1c1ccc(OC(C)C)cc1 (stereo not drawn)	2.39
c1ccc(-c2nnc3n2C2(CCCCC2)Cc2ccccc2-3)cc1	-1.99
Cn1c(=O)nc(-c2ccccc2)c2cc(Cl)ccc21	6.54
COc1ccc(OC)c(CCNCc2c(C(=O)O)c(C)n(Cc3cc(C)ccc3C)c2C)c1	2.99
CC(=O)c1ccc(-c2ccc(/C=c3\sc4nc(=O)c(C)nn4c3=O)o2)cc1	1.91
COc1ccc(C2CC(=O)NC3=C2C(=O)CC(C)(C)C3)cc1Cl (stereo not drawn)	3.5
Cc1ccc(N[C@H]2CS(=O)(=O)C[C@H]2O)cc1	-4.06
CC(C)CC(NC(=O)C(CC(C)C)NC(=O)OC(C)(C)C)C(=O)O (stereo not drawn)	-7.46
COc1ccc2nc3c(O)n(Cc4ccc(Cl)cc4)cnc-3c2c1	4.8
CCOc1ccccc1-c1nn2c(-c3ccncc3)nnc2s1	-0.45
Cc1ccc(-c2ccc(C=C3C(=O)NC(=O)NC3=O)o2)cc1	6.42
O=C(c1ccc([N+](=O)[O-])cc1)N1CCSC1c1ccc(Cl)cc1 (stereo not drawn)	0.162
O=C(CCS(=O)(=O)c1ccc(Br)s1)NCc1ccc2c(c1)OCO2	-4.07
COc1cc(/C=C2\N=C(c3c(-c4ccccc4)noc3C)OC2=O)cc(OC)c1OC	4.35
Cc1cc(C)cc(C(=O)NCCn2ccc3ccccc32)c1	-1.62
NC(=O)c1cccnc1Sc1nc2ccccc2s1	1.08
Cc1ccc(S(=O)(=O)c2cc3c(=O)n4ccccc4nc3n(CCc3ccccc3)c2=N)cc1	-3.33
Clc1ccccc1-c1nn2c(-c3ccncc3)nnc2s1	4.47
CSc1cccc(NC(=O)c2ccc(Cl)cc2)c1	-0.68
